Laboratory results as given in PMC4613507 (Biochemical Journal, 2015).

Target: MBP–NHERF2 (full-length) (UniProt Q15599 1-337)
Test: pull-down

binding result: binds
B1: GST-N–ezrin (GST-tagged N-terminal ezrin […] aa) (domain or fragment)
chain: not shown
